# Data published in the RNAGym collection of RNA variant scans (doi:10.1093/nar/gkz1192).
# Read counts are not given, so values of variants with three or more changes are uncertain.
# B1: CPEB3 Ribozyme (parent)
# chain: UAACAGGGGGCCACAGCAGAAGCGUUCACGUCGCAGCCCCUGUCAGAUUCUGGUGAAUCUGCGAAUUCUGCUGUAUAUCUC
# Variants of: B1
# Experiment: self-cleavage, relative activity (ratio to wild type); higher = more cleavage; in vitro, sequencing
# Outline: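 Relative activity compares each variant's cleaved/total read fraction with that of the unmutated ribozyme. To get these fractions, barcoded CPEB3 ribozyme libraries from rounds of error-prone PCR were transcribed with T7 RNA polymerase for 5 hours at 37°C and then given 15 min of DNase I treatment before EDTA was added. The RNAs were reverse transcribed with template switching and sequenced on Illumina, and DNA sequencing linked barcodes to variants. A minimum of 5 reads applied, and three batches were averaged.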
row,Variant,self-cleavage
1,A5G G10A A15G U25G U54A,0.08
2,A5G G10A A21G A65G U72C,0.08
3,A5G G10A C27U,0.43
4,A5G G10A C62U A64U U72C U80C,0.05
5,A5G G10A U25G C27U,0.32
6,A5G G10A U60A A65G U66C,0.1
7,A5G G10C C11U A18U U25A A45G U58C,0.08
8,A5G G10C U26G A28G A35G U51A A77G,0.06
9,A5G G10U C23G U54C U76A,0.17
10,A5G G10U U31A U51C U74A,0.24
11,A5G G10U U54C G63U U78C,0.36
12,A5G G16A A21G,0.34
13,A5G G19A G73U,0.53
14,A5G G19U A20G U25C U41A U80C,0.07
15,A5G G19U A28G A77C,0.3
16,A5G G19U C38U U49C U60C,0.31
17,A5G G22A A35G C39U A57G,0.06
18,A5G G22A G53A A65G,0.16
19,A5G G22A U26A G63A,0.08
20,A5G G22A U41A,0.3
21,A5G G24A A47G A56G U66A,0.12
22,A5G G24A A56U,0.06
23,A5G G24A U66A U80A C81U,0.24
24,A5G G30A U80C,0.55

row,Variant,self-cleavage
1,A5G G33A A35C G52A U60A C68U,0.08
2,A5G G33A A45G U58A U60C A64G U80A,0.07
3,A5G G42U U49C U60A U67C U72A,0.05
4,A5G G52C U54A,0.91
5,A5G G53A U54C U60C U76C,0.1
6,A5G U25A G30A U31G C32U U78A,0.31
7,A5G U25A U41C U43C A57G,0.55
8,A5G U25C A35U,0.28
9,A5G U25C A47G G52A,0.48
10,A5G U25C A56G U66C,0.37
11,A5G U25C A65C G73A,0.47
12,A5G U25C C39A,0.1
13,A5G U25C C59A C62U U80A,0.33
14,A5G U25C U26C G36C U43A A77G,0.06
15,A5G U25C U26C U43A A64U,0.56
16,A5G U25C U49C U51C U58C,0.33
17,A5G U25C U51A,0.09
18,A5G U25C U54C U72A U80C,0.11
19,A5G U25C U60A,0.22
20,A5G U25C U66A,0.14
21,A5G U26A A45G U80A,0.33
22,A5G U26A U51G U54G A75U,0.1
23,A5G U26C A35G U49C U60C,0.31
24,A5G U26C A45G A47U U58C U80A,0.1

row,Variant,self-cleavage
1,A5G U26C A45U U48A U78C,0.53
2,A5G U26C C37U U51A,0.18
3,A5G U26C C38U A64G,0.23
4,A5G U26C C39U A45U A64G,0.12
5,A5G U26C G33U U43A U78C U80A,0.1
6,A5G U26C U31C A47G,0.65
7,A5G U26C U48A U51A,0.45
8,A5G U26C U51A U80A,0.29
9,A5G U26C U51C U76C,0.42
10,A5G U26C U54C U60C C79A,0.11
11,A5G U26C U60A,0.26
12,A5G U26C U60C,0.31
13,A5G U26G C34U G55A A57G U58A,0.08
14,A5G U26G U43G U66C A77U U78C,0.08
15,A5G U26G U51C A57U G61A U80A,0.05
16,A5G U31A A56G A65G,0.33
17,A5G U31A C40U,0.33
18,A5G U31A C40U U49C,0.12
19,A5G U31A U80A,0.5
20,A5G U31C U41A A47U A75U U78C,0.05
21,A5G U31C U41C U54A A57G U58C,0.08
22,A5G U31C U51A U76A U78A,0.74
23,A5G U31C U74A U78C,0.86
24,A5G U31G U41C A47G U69C U74A,0

row,Variant,self-cleavage
1,A5G U41A U43C U80C,0.42
2,A5G U41A U51C A57G A64G,0.27
3,A5G U41C A45U U58C,0.19
4,A5G U41C G53U U76C,0.61
5,A5G U41C U43C U54C A64G,0.21
6,A5G U41C U48C U80A,0.43
7,A5G U41C U51C U60C A64G,0.1
8,A5G U41C U60C G70C,0.11
9,A5G U41C U67C,0.12
10,A5G U41C U76C,0.46
11,A5G U41G A56G A64G,0.44
12,A5G U43A C68A U80A,0.63
13,A5G U43C A64U U78C,0.56
14,A5G U43C C44U,0.36
15,A5G U43C U51C,0.22
16,A5G U43C U58C C62U U66C U67C U69C,0.06
17,A5G U48C A56U U67A U78C U80C,0.17
18,A5G U48C U49A U54C A56U U80A,0.14
19,A5G U48C U60A U67A,0.12
20,A5G U48C U66C U80C,0.39
21,A5G U49A A56U,0.67
22,A5G U49A G53A,0.57
23,A5G U49C A56G U66C U69A,0
24,A5G U49C C59A A65G U74G,0.07

row,Variant,self-cleavage
1,A5G U49C U51A,0.14
2,A5G U49C U51C U58C A64U U66C,0.15
3,A5G U49C U54C,0.17
4,A5G U49C U67C,0.14
5,A5G U51A A57G,0.26
6,A5G U51A A64U U69C,0.17
7,A5G U51A U78C,0.63
8,A5G U51C A56U A57G U72A U78G,0.29
9,A5G U51C A57G A75U,0.6
10,A5G U51C U54C U60C,0.13
11,A5G U54C A65G A75U U76C,0.21
12,A5G U54C C71G,0.19
13,A5G U54C U69C,0.45
14,A5G U58A U60C U78C,0.1
15,A5G U58A U76A,0.55
16,A5G U60C U69C U78C,0.23
17,A5G U66C A77G,0.15
18,A5G U66C U72C,0.27
19,A5G U66C U80G,0.27
20,A5G U66G A75U,0.2
21,A5G U67A U76C U80C,0.11
22,A5G U67C U78A,0.33
23,A5G U69A U74A,0.16
24,A5G U69A U76C,0.49

row,Variant,self-cleavage
1,A5G U69C G70C U78C,0.17
2,A5U A13C A21G A56G U80C,0.74
3,A5U A13C A28U A77G,1.19
4,A5U A13G A21G A28G,0.29
5,A5U A13G A28U U41C A45G A57U U69C,0.13
6,A5U A13G A35G A65G,0.53
7,A5U A13G A57G,0.43
8,A5U A13G C37A,0.42
9,A5U A13G U25A U43A,0.21
10,A5U A13G U25C A77G,0.51
11,A5U A13G U26C A47G C62U,0.27
12,A5U A13G U31A A35G C37A C40U A65G,0.12
13,A5U A13G U31C A35U C40U U54A U78A,0.12
14,A5U A13G U41C,0.73
15,A5U A13U A15G U25C,0.1
16,A5U A13U G33A U48C G61A U72C,0.08
17,A5U A13U U25A U31C U69C,0.17
18,A5U A13U U25C A28U A64G,0.3
19,A5U A13U U31C U58A U60A,0.14
20,A5U A15C A21G A28C U80C,0.83
21,A5U A15G A47G U78C,1.02
22,A5U A15G A57G A64G,0.75
23,A5U A15G C23G,0.15
24,A5U A15G C29U U66C,0.27

row,Variant,self-cleavage
1,A5U A15G C59A,0.31
2,A5U A15G G30A U74G,0.18
3,A5U A15G U25C A35U C40G U43A U69C,0.24
4,A5U A15G U41C U58C A77G,0.1
5,A5U A15G U54A A57G U78A U80C,0.64
6,A5U A15U A28G A45U C62U A65G,0.12
7,A5U A15U A64G C71A U74A,0.13
8,A5U A18G A28G,0.86
9,A5U A18G A28G U31G,0.17
10,A5U A18G A35G,1.18
11,A5U A18G A45G G61A U78C,0.29
12,A5U A18G A45G U76A,0.3
13,A5U A18G A56G U66C,0.19
14,A5U A18G C44A,0.32
15,A5U A18G U25C,0.35
16,A5U A18G U25C G30U A47G,0.09
17,A5U A18G U26C U76C,0.33
18,A5U A18G U26G G33A A65G,0.09
19,A5U A18G U31C C34U A64U,0.07
20,A5U A18G U43C U67C,0.12
21,A5U A18G U48C U67A,0.21
22,A5U A18G U48G,0.22
23,A5U A18G U60C,0.51
